Here are results for 69 molecules from PubChem BioAssay AID1347073 (National Center for Advancing Translational Sciences (NCATS), 2019).

In all, about 45,000 compounds went through this assay and about 200 (0.44%) were called active. Roughly 7% stayed inconclusive and do not appear here. The call rests on the fitted dose curve; in most records, active means well fitted activation curve with a large enough effect; inconclusive means small, poorly fitted or top-dose-only effect; inactive means no such curve, though single readings can be large or run the other way. This is one part of the list.

The nature of the experiment: qHTS of TDP-43 Inhibitors: NCGC Sytravon Library Screen. Further: 0% is about no effect; nearly all actives have a fitted effect of over 55% in size. The following applies: yeast TDP-43 toxicity rescue, BacTiter-Glo growth, 24 h; series mostly up to 46.1 µM; growth rescue (activation): at the top concentration. The procedure, abridged:
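TDP-43-expressing yeast, pregrown in raffinose, seeded at OD600 0.02 in galactose medium with compound for 24 hr at 30 deg C. Growth read by BacTiter-Glo luminescence, so rescue of toxicity appears as activation.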
On the technique in general: qHTS replaces the single test concentration by a dilution series.
On to `COc1ccc(-n2nc(C(=O)NCC(=O)NCc3ccccc3OC)c3ccccc3c2=O)cc1`, for which the “growth rescue (activation)” value was inactive: 8.99%. For the molecule `CCN(CC(=O)Nc1c(F)cccc1F)C(=O)CCc1c[nH]c2ccccc12`, the “growth rescue (activation)” value was inactive: 13.4%. For the molecule `COc1ccc(OCC(=O)O/N=C(\N)c2ccc(OC)cc2)cc1`, the “growth rescue (activation)” value was inactive: 24%. With `CCOC(=O)c1c(NC(=S)NC)sc2c1CC(C)(C)SC2`, the “growth rescue (activation)” value is inactive: 23.6%.

In the case of `CCOc1cc(/C=C2/SC(=S)NC2=O)ccc1OC(=O)c1ccco1`, the “growth rescue (activation)” value was inactive: -6.66%.

On to `CC1(C(=O)NC2CCCCCC2)CCN1C(=O)Cc1ccc(-c2ccccc2)cc1` (centres undefined), for which the “growth rescue (activation)” value was inactive: 19.1%. As to `CC(/C=N\NC(=O)CN1CCN(S(=O)(=O)c2ccc(C)cc2)CC1)=C\c1ccccc1`, the “growth rescue (activation)” value was inactive: 13.8%. With `CC(C)CC(=O)N1CCN(Cc2ccc(Br)cc2)CC1`, the “growth rescue (activation)” value was inactive: 2.26%.

With `COc1ccccc1/C=C(/C(=O)OCC(=O)N(C)Cc1ccccc1)c1ccccc1`, the “growth rescue (activation)” value is inactive: -17.7%.

In the case of `NC(=S)NN=C1C2CC3CC(C2)CC1C3`, the “growth rescue (activation)” value was inactive: 11%. The figure for `COc1ccc2[nH]c3c(=O)n(N)c(C)nc3c2c1` is inactive: 18.5%. Regarding `O=S(=O)(Nc1ccc(S(=O)(=O)Nc2ncccn2)cc1)c1ccc(Cl)cc1`, the “growth rescue (activation)” value was inactive: 6.54%. For `C/C(=N/N1CCN(c2ccccc2)CC1)c1cccc([N+](=O)[O-])c1`, the “growth rescue (activation)” value was inactive: 23.4%.

With `COc1ccc(/C=N/NC(=O)c2cccnc2)c2ccccc12`, the “growth rescue (activation)” value was inactive: 18.3%. As to `NC(=O)CC[C@H](NC(=O)c1ccc(Cl)cc1)C(=O)NNC(=O)COc1cccc(Br)c1`, the “growth rescue (activation)” value was inactive: 11.9%. `O=C(NC(=S)Nc1ccc(N2CCCCC2)cc1)c1ccc2c(c1)OCCO2`: the “growth rescue (activation)” value is inactive: 17.6%.

On to `CCn1c(O)c(N=NC(=O)C(O)c2ccccc2)c2ccccc21` (centres undefined), for which the “growth rescue (activation)” value was inactive: -22.5%. As for `CCCCOc1ccc(OCCNC(=O)C2CCCN2C(=O)Nc2ccccc2)cc1` (centres undefined), the “growth rescue (activation)” value is inactive: -5.74%. As to `COc1ccccc1NC(=O)Cc1nnc(SCC(=O)NC2CCCCC2)n1C`, the “growth rescue (activation)” value is inactive: 0.664%.

As to `COc1cccc(CNc2ncnc3cc(Cl)ccc23)c1`, the “growth rescue (activation)” value is inactive: -4.91%. Regarding `Cc1cc(Br)ccc1NC(=O)CNC(=O)CN(C)C1CCS(=O)(=O)C1` (centres undefined), the “growth rescue (activation)” value was inactive: 7.31%. The figure for `Cc1ccc(OCC(=O)N2CCN(S(=O)(=O)c3ccc(Cl)cc3)CC2)c([N+](=O)[O-])n1` is inactive: 1.55%; for `Cc1c(Cl)cccc1NC(=O)N1CCN(C(=O)c2ccco2)CC1` it is inactive: 5.74%. For the molecule `Cc1ccccc1SCCNC(=O)c1ccccc1Br`, the “growth rescue (activation)” value is inactive: -1.46%. As for `C=CCN(C(=O)Nc1ccc(OC)cc1)c1nnc(-c2ccncc2)s1`, the “growth rescue (activation)” value is inactive: 13.7%. In the case of `Cc1ccnc(NC(=O)CN2C(=O)c3ccccc3C2=O)c1`, the “growth rescue (activation)” value was inactive: 3.61%. Regarding `Cc1ccc(S(=O)(=O)Nc2ccc(S(=O)(=O)NCC3CCCO3)cc2)cc1` (centres undefined), the “growth rescue (activation)” value is inactive: 7.99%.

With `Cc1cc(NC(=O)CS(=O)CC(=O)Nc2c(C)cccc2C)ccc1-n1cnnn1` (centres undefined), the “growth rescue (activation)” value was inactive: 5.73%. Consider `Cc1ccc(NC(=O)NC(=O)COc2c(F)c(F)cc(F)c2F)c(C)c1`, for which the “growth rescue (activation)” value was inactive: -5.44%.

For the molecule `O=C(CN1CCC(C(=O)c2ccc(F)cc2)CC1)Nc1ccccc1Cl`, the “growth rescue (activation)” value was inactive: -3.51%.

For the molecule `Cc1ccc(NC(=S)NCCc2ccccc2)nc1`, the “growth rescue (activation)” value is inactive: 11%. The figure for `Cc1ccc(/C=C/C(=O)NCCCN2CCN(CCCNC(=O)/C=C/c3ccc(C)o3)CC2)o1` is inactive: 13%; for `O=C(N/N=C/c1cc(O)ccc1[N+](=O)[O-])c1ccc2c(c1)OCCO2` it is inactive: 24.1%; for `O=c1[nH]cnc(O)c1C(c1cccc([N+](=O)[O-])c1)c1c(O)nc[nH]c1=O` it is inactive: -6.85%. Regarding `O=C(c1ccco1)N1CCN(S(=O)(=O)Cc2ccccc2Cl)CC1`, the “growth rescue (activation)” value was inactive: -18.4%.

Regarding `CCOc1ccc(S(=O)(=O)NCc2cccnc2)cc1C`, the “growth rescue (activation)” value was inactive: -8.87%.

As to `O=C(C1CCN(S(=O)(=O)c2cc(Cl)ccc2Cl)CC1)N1CCOCC1`, the “growth rescue (activation)” value is inactive: 6.99%.

With `CCc1ccc(N(CC(=O)NCc2ccco2)C(=O)CCC(=O)Nc2ccccn2)cc1`, the “growth rescue (activation)” value is inactive: 0.126%. In the case of `Cc1ccc(OCC(=O)N2CCOCC2)cc1C`, the “growth rescue (activation)” value is inactive: -3.49%.

Regarding `C/C(=N\NC(=O)c1ccc(Cl)c(Cl)c1)c1ccccn1`, the “growth rescue (activation)” value was inactive: 27.6%.

For the molecule `CN(C)C(=O)C1Cc2ccccc2CN1S(=O)(=O)c1cccs1` (centres undefined), the “growth rescue (activation)” value was inactive: 4.91%.

Regarding `COc1ccc2[nH]c(=O)c(CN(C(=O)c3cccnc3)c3ccc(C)cc3C)cc2c1`, the “growth rescue (activation)” value was inactive: 4.74%.

For `COc1ccc([N+](=O)[O-])cc1NC(=O)Cc1ccc(Cl)cc1`, the “growth rescue (activation)” value is inactive: 11.9%. In the case of `Oc1c(C=Nc2ccccc2)sc2ccccc12`, the “growth rescue (activation)” value was inactive: 6.93%. As to `COc1ccccc1N(C)S(=O)(=O)c1ccc(C(=O)Nc2cccc(Br)c2)cc1`, the “growth rescue (activation)” value was inactive: 5.78%. On to `CC(C)Nc1nc(NC(C)C)nc(Nn2cnnc2)n1`, for which the “growth rescue (activation)” value is inactive: -12.2%. Regarding `O=S(=O)(NCc1ccccc1)NCc1ccccc1`, the “growth rescue (activation)” value was inactive: 7.85%. The figure for `COc1ccc(NC(=O)CSc2nnc(NC(=O)C3CCC3)s2)cc1` is inactive: 13.3%; for `Cc1ccccc1Nc1nc(N)nc(CSc2nnc(-c3ccccc3)n2C)n1` it is inactive: 33.1%.

Regarding `CCCc1cc(=O)[nH]c(SCc2nc3ccc([N+](=O)[O-])cc3[nH]2)n1`, the “growth rescue (activation)” value was inactive: 20.6%. As to `Cc1ccc(NC(=O)COC(=O)Cc2ccc(Br)cc2)cc1S(=O)(=O)N1CCOCC1`, the “growth rescue (activation)” value is inactive: -2.42%. The figure for `O=S(=O)(NCc1ccccc1F)NCc1ccccc1F` is inactive: 17.2%; for `Cc1ccsc1C(=O)NCCC(c1ccccc1)c1ccccc1` it is inactive: 26%.

As to `CC(C)Nc1ncnc2c1ncn2[C@H]1CN(C2CCCC2)C[C@@H](CO)O1`, the “growth rescue (activation)” value is inactive: -2.59%. With `Cc1ccc(C(C)C)c(OCC(O)CN(C)Cc2ccccc2)c1` (centres undefined), the “growth rescue (activation)” value was inactive: 3.37%.

Regarding `COc1ccc(C2CC(c3cccs3)=NN2C(=O)CCC(=O)O)cc1OC` (centres undefined), the “growth rescue (activation)” value was inactive: -1.16%. For the molecule `CN(CC(=O)Nc1ccc(F)cc1Cl)Cc1cccs1`, the “growth rescue (activation)” value is inactive: 11%. `O=C1NN(c2ccc(Br)cc2)C(=O)/C1=C\c1ccc(O)cc1O`: the “growth rescue (activation)” value was inactive: -0.864%.

As to `COc1ccc(Oc2nc3c(C)cccn3c(=O)c2/C=C(\C#N)c2nc3ccccc3[nH]2)cc1`, the “growth rescue (activation)” value was inactive: 16%.

As for `O=S(=O)(c1cccc(-c2cn3cccnc3n2)c1)N1CCCCCC1`, the “growth rescue (activation)” value was inactive: 17.4%. The figure for `CC(=O)Nc1ccc(N(C(=O)c2ccco2)C(C(=O)NC2CCCC2)c2ccc(N3CCOCC3)cc2)cc1` (centres undefined) is inactive: 5.47%; for `CCOC(=O)c1c(NC(=O)c2cccs2)sc(C)c1C` it is inactive: 8.79%. As for `Cc1cscc1-c1cc2nc(NCCCN(C)C)n(C)c(=O)c2s1`, the “growth rescue (activation)” value is inactive: 5.81%.

On to `COc1cccc(CN(C)C(=O)C23CC4CC(CC(C4)C2)C3)c1`, for which the “growth rescue (activation)” value was inactive: 22.8%. In the case of `COc1ccc(N2CCN(CC(=O)Nc3ccccc3SC)CC2)cc1`, the “growth rescue (activation)” value is inactive: 14.7%.

In the case of `O=C(COC(=O)c1cccc(C(F)(F)F)c1)NC(=O)NC1CCCC1`, the “growth rescue (activation)” value was inactive: 19.7%. In the case of `CC1(C(=O)Nc2cccnc2)Cc2c(-c3ccccc3)ccnc2O1` (centres undefined), the “growth rescue (activation)” value was inactive: 6.63%.

In the case of `CC(C)c1ccccc1OCCNC(=O)c1cccnc1`, the “growth rescue (activation)” value was inactive: 8.5%. As for `CCN(CC)CCN1C(=O)c2oc3ccccc3c(=O)c2C1c1ccc(C)cc1` (centres undefined), the “growth rescue (activation)” value is inactive: -40.9%.
